Source: PubChem BioAssay AID894 (National Center for Advancing Translational Sciences (NCATS), 2007)
Several values for one entry are separate records, joined by “and”; a condition that tells them apart may be missing. Identical values can stand only once. Screen size: about 150,000 compounds; about 6,500 (4.3%) were called active. Inconclusive means that the source gave no clear call. Such entries were picked first, then a sample of the others. Calls follow the shape of the dose curve; as a rule, active = well fitted inhibition curve with a large enough effect (not every such curve was filed as active); inconclusive = small, poorly fitted or top-dose-only effect, or another doubt; inactive = no such curve, though single readings can be large or run the other way. No potency is given beside an inconclusive call; the fits are too rough.

Target: 15-hydroxyprostaglandin dehydrogenase [NAD(+)] (Homo sapiens) (UniProt P15428)
UniProt P15428, sequence (P15428 whole entry, looked up): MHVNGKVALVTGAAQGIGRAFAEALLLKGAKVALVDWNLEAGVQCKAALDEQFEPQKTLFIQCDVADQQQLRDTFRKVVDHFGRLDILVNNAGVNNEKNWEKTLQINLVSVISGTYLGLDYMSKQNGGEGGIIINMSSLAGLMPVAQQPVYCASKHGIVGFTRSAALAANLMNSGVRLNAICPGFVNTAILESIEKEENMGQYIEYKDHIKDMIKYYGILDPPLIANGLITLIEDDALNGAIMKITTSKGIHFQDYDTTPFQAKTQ
Assay: qHTS Assay for Inhibitors of HPGD (15-Hydroxyprostaglandin Dehydrogenase)
Conditions: purified HPGD, NADH fluorescence kinetic, PGE2 substrate; activity change, negative = inhibition: hits give low values
Procedure, shortened: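 20 nM HPGD preincubated 15 min at room temperature with compound in 50 mM Tris-HCl pH 8, 0.01% Tween 20. Started with 1 mM NAD+ and 30 uM prostaglandin E2; NADH fluorescence (360/450 nm) read 5 times over 30-s intervals, last minus first.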
% is scaled to controls: 0 for no effect and ±100 for the full control effect; potency is read from the fitted curve at half-maximal effect; tags tell the direction and shape of the fitted curve.

| Compound | Potency | activity change, negative = inhibition |
| --- | --- | --- |
| O=C(Cc1cccc2ccccc12)N/N=C/c1ccc(Sc2nc3ccccc3s2)o1 | inconclusive [inhibitor, partial curve] |  |
| CS(=O)(=O)N1CCC2(CC1)CN(c1ccccn1)C2 | inconclusive [inhibitor, partial curve] |  |
| COc1ccc(OCc2cccc(C(=O)N3CCCC3)c2)cc1 |  | inactive: -28.1% |
| COC1=C(OC)C(=O)c2ccccc2C1=O | inconclusive [inhibitor, partial curve] |  |
| CC[C@@H]1C(c2cccc(Cl)c2)=NN(c2ccc(Br)cc2)[C@H]1C(=O)N1CCOC1=O | inconclusive [inhibitor, partial curve] |  |
| Cc1cc2oc(=O)c3c(c2cc1OCc1nn[nH]n1)CCCC3 | inconclusive [inhibitor, partial curve] |  |
| CCOC(=O)C1=C(C)N=C2SC(C)C(=O)N2C1c1cccc(F)c1 (configuration not stated) |  | inactive: -3.92% |
| CCOC(=O)c1c(-c2ccccc2)oc2ccc(OCC)cc12 | inconclusive [inhibitor, partial curve] |  |
| COc1cc(C2C(C#N)=C(N)Oc3c2c(-c2ccccc2)nn3-c2ccccc2)cc(OC)c1OC (configuration not stated) |  | inactive: -20.9% |
| Clc1ccc(-c2nnc(-c3ccco3)nc2N2CCCCC2)cc1 | inconclusive [inhibitor, single point] |  |
| Cc1nnc(C)n1/N=C/c1cccc(Oc2ccccc2)c1 |  | inactive: -15.6% |
| Cc1nn(-c2ccccc2)c(C)c1/C=N/n1c(-c2ccc(C(C)(C)C)cc2)n[nH]c1=S | inconclusive [inhibitor, partial curve, poor fit] |  |
| CN(C)c1ccc(C(=S)N2CCN(c3ccccc3)CC2)cc1 |  | inactive: -9.34% |
| O=Nc1ccc(NOC(=O)c2ccccc2Br)cc1 | active: 28.2 µM |  |
| COc1ccc(C(=O)Nc2nc3c(s2)Cc2cc(OC)ccc2-3)cc1 |  | inactive: -13.2% |
| O=C(NCc1cccs1)c1ccccc1 | active: 25.1 µM |  |
| O=C(CNS(=O)(=O)c1cccc(Cl)c1)Nc1ccc(-c2nc3ccccc3s2)cc1 | inconclusive [inhibitor, single point] |  |
| O=C(Cc1cccs1)Nc1nnc(SCc2ccc(C(F)(F)F)cc2)s1 |  | inactive: -3.05% |
| CCCCC(=O)Nc1ccc2oc(-c3cccnc3)nc2c1 | inconclusive [inhibitor, partial curve] |  |
| O=C(Oc1ccc2ccccc2c1Br)N1CCCCCC1 | active: 31.6 µM |  |
| Cc1nc2ccc(N)cc2c(=O)n1Cc1ccc(Cl)cc1 | inconclusive [inhibitor, partial curve] |  |
| Fc1ccc(CNC(=S)Nc2cccc(C(F)(F)F)c2)cc1 | inconclusive [inhibitor, partial curve] |  |
| COc1cccc(Nc2c3c(nc4c(-c5ccccc5)c(C)nn24)CCC3)c1 | inconclusive [inhibitor, single point] |  |
| O=C(c1csc2c1CCCC2)N1CCCCC1 | active: 1.58 µM |  |

| Compound | Potency | activity change, negative = inhibition |
| --- | --- | --- |
| CCOc1ccccc1NC(=O)CSC1=C(C#N)C(c2ccco2)C(C(=O)Nc2nc3ccccc3s2)=C(C)N1 (configuration not stated) | inconclusive [inhibitor, partial curve] |  |
| O=C(C1CCN(c2ncnc3c2sc2cccc(F)c23)CC1)N1CCOCC1 | inconclusive [inhibitor, partial curve] |  |
| CCCNC(=O)c1cc2nc(-c3ccccc3)cc(C(F)(F)F)n2n1 | inconclusive [inhibitor, partial curve] |  |
| CC(Oc1ccc2c(-c3ccccc3)cc(=O)oc2c1)C(=O)O (configuration not stated) | inconclusive [inhibitor, partial curve] |  |
| O=C(NCCN1C(=O)S/C(=C\c2ccc(F)cc2)C1=O)C1CCN(S(=O)(=O)c2cccs2)CC1 | inconclusive [inhibitor, partial curve] |  |
| CC(=O)OC(C)(CCC(C)(OC(C)=O)C(C)=O)C(C)=O (configuration not stated) |  | inactive: -2.98% |
| Cc1ccc(Cl)cc1Nc1nc(-c2sc(NC(=O)C(C)(C)C)nc2C)cs1 |  | inactive: -10.4% |
| C=CCNC(=S)N/N=C/c1ccc(N(CC)Cc2ccccc2)cc1 | inconclusive [inhibitor, partial curve] |  |
| COC(=O)c1ccc(NC(=O)CSc2n[nH]c(-c3ccncc3)n2)cc1 | inconclusive [inhibitor, partial curve] |  |
| Cc1cc(OCC(=O)NCC(C)C)cc(C)c1Br | active: 14.1 µM |  |
| Nc1c(NCc2ccccc2)c2ccccc2oc1=O | inconclusive [inhibitor, single point] |  |
| COc1cc2ncnc(NCc3ccccc3)c2cc1OC | inconclusive [inhibitor, partial curve] |  |
| CCC(c1nnnn1Cc1ccco1)N(Cc1cc2cc(OC)ccc2[nH]c1=O)C1CCCCC1 (configuration not stated) | inconclusive [inhibitor, single point] |  |
| CCN(CC)C(=O)c1sc2nc(-c3cccs3)cc(-c3ccc(Cl)cc3)c2c1N | active: 6.31 µM |  |
| Cc1cnc(NC(=O)CSc2nnc(C)s2)s1 |  | inactive: -0.21% |
| Cc1c(CC(C)(C)C(=O)O)n(Cc2ccc(Cl)cc2)c2ccc(F)cc12 | inconclusive [inhibitor, partial curve, poor fit] |  |
| Cc1noc(/C=C/c2ccco2)c1S(=O)(=O)N1CCC(C(=O)N2CCc3ccccc3C2)CC1 | active: 20 µM |  |
| CC(=O)Nc1sc(N/N=C\c2ccccc2Cl)nc1-c1cccs1 | inconclusive [inhibitor, partial curve] |  |
| COc1ccc(-c2nnc(NC(=O)CSc3ccccc3)s2)cc1OC | inconclusive [inhibitor, partial curve] |  |
| COc1ccc(C(=O)N2CCCC2)cc1 | active: 6.31 µM |  |
| Cn1c(-c2ccc(F)cc2)cnc1NCc1ccc(C#N)cc1 |  | inactive: -13.8% |
| CNS(=O)(=O)c1ccccc1C(=N)c1ccccc1 |  | inactive: -5.89% |
| Cc1ccc(Nc2nc(-c3c(C)nc4ccccn34)cs2)cc1 | inconclusive [inhibitor, partial curve] |  |
| CCCOc1ccc(CN(CCC#N)C(=S)NC(=O)c2ccccc2)cc1 | active: 28.2 µM |  |

| Compound | Potency | activity change, negative = inhibition |
| --- | --- | --- |
| Cc1ccc(/C=N/NC(=O)c2sccc2OCc2ccc(F)cc2)cc1 | active: 31.6 µM |  |
| CCc1cc2c3c(c(=O)oc2cc1OC)CCCC3 | inconclusive [inhibitor, partial curve] |  |
| Cc1ccccc1OCCNC(=O)c1ccccc1Sc1ccccc1C#N | inconclusive [inhibitor, single point] |  |
| CCOCC(=O)Nc1cc(-c2cn3cccnc3n2)ccc1C | inconclusive [inhibitor, partial curve] |  |
| CC(=O)n1cc(/C=N/NC(=O)c2sc(C)nc2C)c2ccccc21 | inconclusive [inhibitor, partial curve] |  |
| Cc1ccc(C(=O)CSc2nnc(-c3ccco3)o2)o1 | inconclusive [inhibitor, single point] |  |
| COc1ccccc1-n1c(SCC(=O)N2CCCC2)nc2cccnc21 | inconclusive [inhibitor, partial curve] |  |
| COc1ccc(-c2nn(CC(=O)Nc3ccc(Cl)c(Cl)c3)c(=O)c3ccccc23)cc1 | inconclusive [inhibitor, single point] |  |
| O=S1(=O)CCN(Cc2ccc(Cl)c(Cl)c2)CC1 |  | inactive: -3.98% |
| O=C(CSc1ccc(Cl)cc1)Nc1ccccc1N1CCN(C(=O)c2ccccc2)CC1 |  | inactive: -7.56% |
| Cc1cccc(NC(=S)NC(=O)CCc2ccccc2)c1C |  | inactive: -28% |
| COc1ccc(Cl)cc1S(=O)(=O)N1CCCC1 | inconclusive [inhibitor, single point] |  |
| CCCc1ccc(-c2ccc(/C=C/C(=O)O)cc2)nc1 | inconclusive [inhibitor, partial curve] |  |
| N#CC1(C#N)C(c2ccccc2)OC23CCCCCC2C1(C#N)C(=N)O3 (configuration not stated) | inconclusive [inhibitor, partial curve] |  |
| COc1ccc(/C=C/C(=O)c2cc(F)ccc2OC(=O)c2ccc(OC)c(OC)c2)cc1OC | inconclusive [inhibitor, full curve, poor fit] |  |
| Cc1ccc(CSc2nc3c(c(=O)[nH]2)CCC3)cc1 | active: 10 µM |  |
| Cc1ccccc1-n1c(C)cc(/C=C(\C#N)C(=O)NCC2CCCO2)c1C (configuration not stated) |  | inactive: -12.3% |
| CCOC(=O)c1c(-c2cccs2)csc1NC(=O)CSc1ncn[nH]1 | inconclusive [inhibitor, single point] |  |
| CCOC(=O)c1ccc(N=Cc2nc(-c3ccccc3)oc2OC(C)=O)cc1 | active: 15.8 µM |  |
| Cc1cc2sc(C)[n+](CCCOS(=O)(=O)O)c2cc1C |  | inactive: -2.4% |
| COc1cc2cc(CN(CCc3ccccc3C)C(=S)NCCCN(C)C)c(=O)[nH]c2cc1OC | inconclusive [inhibitor, partial curve] |  |
| CCOc1cc(/C=N/n2cnnc2)ccc1OCC(=O)Nc1ccccc1OC | inconclusive [inhibitor, single point] |  |
| Cc1c(C(=O)O)sc2ncnc(N3CCCCC3C)c12 (configuration not stated) | active: 17.8 µM |  |
| O=c1cc(-c2ccccc2Cl)oc2ccc([N+](=O)[O-])c(O)c12 | active: 2.51 µM and active: 11.2 µM |  |
